# PubChem BioAssay AID624296 (National Center for Advancing Translational Sciences (NCATS), 2012)
# Out of some 350,000 compounds screened, about 9,900 (2.8%) were called active. Inconclusive results, whose numbers are uncertain, are shown with a selection of clear calls. Calls follow the shape of the dose curve; as a rule, active = well fitted activation curve with a large enough effect; inconclusive = small, poorly fitted or top-dose-only effect; inactive = no such curve, though single readings can be large or run the other way. No potency is given beside an inconclusive call; the fits are too rough.
# Assay: A quantitative high throughput screen for small molecules that induce DNA re-replication in MCF 10a normal breast cells. Also: nearly all actives have a fitted effect of over 50% in size. As to activity, positive = re-replication: % of control where 0% means no effect.
# Conditions: MCF 10A DNA re-replication, Hoechst nuclear intensity, 48 h; activity, positive = re-replication: at 46.1 µM (top of the series)
# Potency is read from the fitted curve at half-maximal effect; tags tell the direction and shape of the fitted curve.
Structure (SMILES),"activity, positive = re-replication",Potency
O=C(CSc1nnc(-c2cccc(F)c2)o1)Nc1nncs1,inactive: 4.71%,–
Cc1ccc(C)c(NS(=O)(=O)c2ccc(-c3cnc(C4CC4)o3)cc2)c1,–,"inconclusive [activator, partial curve, poor fit]"
C[C@H](CO)N1C[C@H](C)[C@@H](CN(C)C(=O)Nc2ccc(C(F)(F)F)cc2)Oc2ccc(NS(=O)(=O)c3cn(C)cn3)cc2C1=O,inactive: 9.52%,–
COc1ccc(/C=N/n2cnc3c([nH]c4ccc(C)cc43)c2=O)cc1CN1CCCC1,–,"inconclusive [activator, single point]"
C/C(=N\NC(=O)c1cccc(Cl)c1)C1C(=O)c2ccccc2C1=O,–,"inconclusive [activator, single point]"
Cc1ccc(Oc2nc(-c3cccnc3)nc3ccccc23)c([N+](=O)[O-])n1,inactive: 7.07%,–
CC1CCC(NC(=O)C2CCN(C(=O)Nc3ccccc3)CC2)CC1 (configuration not stated),–,"inconclusive [activator, partial curve, poor fit]"
O=C(CN1CCN(c2ccc(Cl)cc2)CC1)Nc1ccc(F)cc1,inactive: 1.51%,–
NC(=O)c1nsc(C(=O)N(CC(=O)NCc2ccc(F)cc2)Cc2ccco2)c1N,–,"inconclusive [activator, single point]"
C1CCC(C23CC4CC(CC(C4)C2)C3)NC1 (configuration not stated),–,"inconclusive [activator, partial curve, poor fit]"
COc1ccc(CNCCc2ccc([N+](=O)[O-])cc2)c(OC)c1OC,inactive: 0.407%,–
O=C(O)CCCCCNc1ncnc2ccc(Br)cc12,–,"inconclusive [activator, partial curve, poor fit]"
COc1ccc(-c2sc3ccc(OC)cc3c2C#CCCO)cc1,–,"inconclusive [activator, single point]"
Cn1c(=S)oc2ccccc21,–,"inconclusive [activator, full curve]"
CC1([N+](=O)[O-])COC(c2cccc3ccccc23)OC1 (configuration not stated),inactive: -1.06%,–
CCOC(=O)c1c(-c2cccs2)csc1NC(=O)c1ccncc1,–,"inconclusive [activator, partial curve, poor fit]"
S=C(NCCCN1CCOCC1)N1CCN(c2nc(-c3ccc(Cl)cc3)cs2)CC1,–,"inconclusive [activator, partial curve]"
COc1cc(OC)cc(C(=O)NCCNc2nc3cc(C)cc(C)c3cc2C#N)c1,–,active: 16.4 µM
Nc1ncnc(Nc2ccccc2Cl)n1,inactive: -0.248%,–
O=C(N/N=C/c1ccccn1)c1cc(-c2ccc(Cl)cc2)nc2ccccc12,–,"inconclusive [activator, partial curve, poor fit]"
COc1ccc2oc(=Nc3ccccc3)c(-c3nc4ccccc4[nH]3)cc2c1,–,"inconclusive [activator, partial curve, poor fit]"
CCC(C(=O)Nc1ccccc1N1CCCC1)c1ccccc1 (configuration not stated),inactive: -0.653%,–
O=C(Nc1ccc(-c2nc3c(ccc4ccccc43)o2)cc1)c1ccco1,–,active: 4.61 µM
Cc1ccc(NCc2nnc(SCCN3CCCCC3)n2CC2CCCO2)c(C)c1 (configuration not stated),–,"inconclusive [activator, partial curve, poor fit]"

Structure (SMILES),"activity, positive = re-replication",Potency
CC(=O)c1ccc(OC2OCCOC2Oc2ccc(C(C)=O)cc2)cc1 (configuration not stated),–,"inconclusive [activator, single point]"
COc1ccccc1CCN1CCCC(CN(C)CC(C)(C)CO)C1 (configuration not stated),–,"inconclusive [activator, partial curve]"
O=[N+]([O-])c1ccc(-n2nnnc2-c2ccccc2)cc1,–,"inconclusive [activator, single point]"
COc1ccc(NC2=NCCC2)cc1,–,"inconclusive [activator, partial curve, poor fit]"
Nc1[nH]c(=O)nc(Nc2ccccc2)c1N=O,inactive: 11%,–
O=C(CN(Cc1ccc(Br)cc1)S(=O)(=O)c1ccccc1)NCc1cccnc1,–,"inconclusive [activator, single point]"
CCc1nc(SCC(=O)N2CC(=O)Nc3ccccc32)c2c(C)c(C)sc2n1,inactive: 17%,–
COc1ccc(NC(=O)NNC(=O)CCc2ccc(O)c(O)c2)cc1OC,–,"inconclusive [activator, single point]"
Cc1cc(NC(=O)c2ccc3c(c2)OCCO3)no1,–,"inconclusive [activator, partial curve, poor fit]"
CCN(CC)CCCNC(=O)c1csc(Nc2cccc3ccccc23)n1,–,"inconclusive [activator, partial curve, poor fit]"
CCC1=NN(C(=O)c2ccc(C)cc2)C(O)(c2ccc(Br)cc2)C1 (configuration not stated),inactive: 18.1%,–
CC(NC(=O)c1cc(-c2ccccn2)nc2ccc(Cl)cc12)C1CCCO1 (configuration not stated),–,"inconclusive [activator, single point]"
O=C(Nc1ccc(NC(=O)C23CC4CC(CC(C4)C2)C3)cn1)c1ccco1,–,"inconclusive [activator, partial curve]"
O=C(Nc1nc(-c2ccc(Oc3ccccc3)cc2)cs1)C1=COCCO1,inactive: 18.6%,–
COc1ccc(C2=CCN3CCCCC3C2)c(-c2ccc(OC)c(OC)c2)c1 (configuration not stated),–,active: 8.2 µM
CC(C)(C)c1cc(CSC(=S)NC2CCS(=O)(=O)C2)c(Br)c(C(C)(C)C)c1 (configuration not stated),–,"inconclusive [activator, partial curve]"
O=C(CNS(=O)(=O)c1ccc(Br)cc1)NC1CCCC1,inactive: -0.328%,–
OC(COC(c1ccc(F)cc1)c1ccc(F)cc1)CN1CCc2ccccc2C1 (configuration not stated),–,"inconclusive [activator, partial curve, poor fit]"
Cc1nn(-c2ccccn2)c2c1C(c1c(F)cccc1Cl)C1=C(N2)c2ccccc2C1=O (configuration not stated),inactive: 7.33%,–
COc1ccc(NC(=O)c2cc([N+](=O)[O-])ccc2NC(=O)CNCc2ccccn2)c(OC)c1,inactive: 12.2%,–
CCN(Cc1ccccc1)C(c1ccc(C)cc1)c1nnnn1C(C)(C)CC (configuration not stated),–,"inconclusive [activator, single point]"
C=CCN(c1ccccc1)S(=O)(=O)c1cccc(C(=O)N(CC)CC(=O)Nc2c(F)cccc2F)c1,inactive: -0.645%,–
CCOC(=O)C(C)N1C(=O)S/C(=C/c2ccc3c(c2)n(C)c(=O)n3C)C1=O (configuration not stated),inactive: -9.5%,–
COc1ccc(C(=O)/C=C(\C)Nc2ccc(NC(C)=O)cc2)cc1,–,"inconclusive [activator, single point]"

Structure (SMILES),"activity, positive = re-replication",Potency
CCN(CC)c1ccc(/C=C(\C#N)c2ccccn2)cc1,–,active: 23.1 µM
COc1ccc(-n2c(SCC(=O)O)nnc2-c2ccc(NC(=O)c3ccccc3)cc2)cc1,inactive: -0.926%,–
CC(C)Oc1cccc(C(=O)C2CCCN(C(=O)c3noc4c3CCCC4)C2)c1 (configuration not stated),–,"inconclusive [activator, single point]"
CN(C)c1ccc(C(C(=O)NCc2ccccc2)N(Cc2cccnc2)C(=O)c2snc(C(N)=O)c2N)cc1 (configuration not stated),inactive: 20.8%,–
COc1ccc(C(=O)NC2CCCCCC2)cc1S(=O)(=O)N1CCOCC1,–,"inconclusive [activator, single point]"
CC(C)Cc1nnc(NC(=O)c2ccc3c(c2)OCCO3)s1,inactive: -4.08%,–
CCOc1cc(/C=N/NC(=O)C(=O)NCc2ccc3c(c2)OCO3)ccc1OCC(=O)N1CCOCC1,inactive: -0.071%,–
COc1ccc(-c2[nH]c(-c3ccc(Cl)cc3)nc2SCC(=O)Nc2nccs2)cc1,–,"inconclusive [activator, partial curve, poor fit]"
Cc1[nH]n(C(N)=S)c(=O)c1N=Nc1cc(C(F)(F)F)ccc1Cl,–,"inconclusive [activator, single point]"
Cc1ccccc1NC(=O)c1cc(C(=O)c2cc(Cl)ccc2O)cn(-c2ccccc2C)c1=O,inactive: 22.9%,–
CCCCCCC1CC(CSC(=N)N)OC1=O (configuration not stated),–,"inconclusive [activator, single point]"
Cc1nc(-c2ccc(S(=O)(=O)Oc3ccccc3Cl)s2)cs1,–,"inconclusive [activator, single point]"
Cc1ccc(C)c(NC(=O)CSc2nc3nc(-c4cccs4)cc(C(F)(F)F)c3c(=O)[nH]2)c1,–,active: 20.6 µM
O=C(C[n+]1cc(-c2ccc(F)cc2)n2c1CCC2)c1cccs1,–,"inconclusive [activator, partial curve, poor fit]"
C(=N\c1nc2ccccc2n1CCN1CCOCC1)/c1cccs1,–,"inconclusive [activator, partial curve, poor fit]"
CCN1C(=O)CS/C1=N\S(=O)(=O)c1ccccc1,inactive: -0.642%,–
CC(C)(C)[C@H]1COC(=O)CC/C=C\C[C@H](CC(=O)N(CCO)Cc2ccccc2)C(=O)N1,inactive: 13.6%,–
O=C(COc1ccc2c3c(c(=O)oc2c1)CCCC3)NCCCN1CCOCC1,inactive: -1.36%,–
CC(N=Cc1cccc(O)c1O)c1ccccc1 (configuration not stated),–,"inconclusive [activator, full curve]"
Cc1ccc(-c2csc(N/N=C/C=C/c3ccccc3)n2)cc1,inactive: 8.87%,–
CN(C)C(=O)CSc1cccc2cccnc12,–,"inconclusive [activator, partial curve, poor fit]"
CCOC(=O)CCc1nn(C)c(=O)c2ccccc12,–,"inconclusive [activator, single point]"
COc1nc(/C=C/N(C)C)c([N+](=O)[O-])c(OC)n1,–,active: 6.51 µM
CC12CCC(C(=O)Nc3cc(Cl)ccc3Cl)(C/C1=N\O)C2(C)C (configuration not stated),–,"inconclusive [activator, full curve]"
